Experimental data reported in PMC4336329 (PLoS ONE, 2015).
About 2,200 (0.71%) of roughly 310,000 compounds showed an effect of 50% or more. Effects have a minus sign here. The list shows a part of the results.

Biological target: human ether-à-go-go-related gene (hERG) potassium channel (human, UniProt Q12809)
Assay: primary screen, population patch clamp on CHO cells stably expressing hERG

Sequence of human ether-à-go-go-related gene (hERG) potassium channel (Q12809 whole entry, looked up): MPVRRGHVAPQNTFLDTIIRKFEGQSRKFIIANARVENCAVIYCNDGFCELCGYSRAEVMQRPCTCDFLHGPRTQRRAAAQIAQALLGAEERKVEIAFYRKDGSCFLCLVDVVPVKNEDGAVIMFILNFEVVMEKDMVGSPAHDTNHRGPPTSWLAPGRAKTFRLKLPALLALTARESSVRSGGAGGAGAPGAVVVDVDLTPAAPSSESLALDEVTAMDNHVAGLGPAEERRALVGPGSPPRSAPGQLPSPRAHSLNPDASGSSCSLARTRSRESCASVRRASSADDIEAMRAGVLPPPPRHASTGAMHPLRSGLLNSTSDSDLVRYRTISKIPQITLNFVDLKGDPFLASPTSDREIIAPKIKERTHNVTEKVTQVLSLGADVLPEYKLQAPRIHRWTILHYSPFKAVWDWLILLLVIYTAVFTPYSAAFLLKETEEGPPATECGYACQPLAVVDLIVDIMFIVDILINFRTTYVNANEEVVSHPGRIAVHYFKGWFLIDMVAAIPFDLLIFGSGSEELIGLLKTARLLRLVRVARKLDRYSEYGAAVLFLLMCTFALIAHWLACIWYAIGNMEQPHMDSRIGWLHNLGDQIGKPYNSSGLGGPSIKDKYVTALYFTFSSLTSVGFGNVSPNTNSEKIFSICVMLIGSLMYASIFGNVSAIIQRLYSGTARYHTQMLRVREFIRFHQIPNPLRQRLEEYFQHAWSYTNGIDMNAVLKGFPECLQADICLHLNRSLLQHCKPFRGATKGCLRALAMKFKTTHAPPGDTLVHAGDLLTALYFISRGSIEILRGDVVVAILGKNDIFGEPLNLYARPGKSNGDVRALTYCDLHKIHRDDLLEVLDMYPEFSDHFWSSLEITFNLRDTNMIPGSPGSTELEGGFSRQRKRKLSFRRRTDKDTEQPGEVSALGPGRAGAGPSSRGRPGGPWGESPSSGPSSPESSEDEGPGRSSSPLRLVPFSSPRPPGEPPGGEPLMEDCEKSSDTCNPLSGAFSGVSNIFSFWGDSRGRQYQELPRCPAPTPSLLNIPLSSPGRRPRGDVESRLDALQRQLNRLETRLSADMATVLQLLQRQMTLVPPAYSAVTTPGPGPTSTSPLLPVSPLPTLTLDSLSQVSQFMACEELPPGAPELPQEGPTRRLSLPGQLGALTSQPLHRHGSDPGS

With `COc1ccc(N2C(=O)C3ON(C4SC(=S)N(C)C4(C)C)C(c4ccc(Cl)cc4)C3C2=O)cc1` (centres unmarked) as the molecule, how does the “hERG current change (%, negative = inhibition) at 1uM” value read?
The value was 2.68%.

With `Cc1cc(C)cc(OCC(=O)N(Cc2ccco2)c2c(N)n(Cc3ccccc3)c(=O)[nH]c2=O)c1` as the molecule, how does the “hERG current change (%, negative = inhibition) at 1uM” value read?
Its value is 4.97%.

With `COC(=O)c1cccc(NC(=O)c2cnccn2)c1` as the molecule, how does the “hERG current change (%, negative = inhibition) at 1uM” value read?
Its value is 11.1%.

With `COc1ccc(OC)c(/C=c2\sc3nc(-c4cccs4)nn3c2=O)c1` as the molecule, how does the “hERG current change (%, negative = inhibition) at 1uM” value read?
The value was 10.6%.

How did the “hERG current change (%, negative = inhibition) at 1uM” value turn out when `CCOC(=O)N1CCC(=C(C#N)C(=O)Nc2cc(OC)ccc2OC)CC1` was run?
Its value is 15.5%.

For `CCCOc1ccc(NC(=O)C2CC(=O)N(C)C(=Nc3cccc(OC)c3)S2)cc1` (centres unmarked), which “hERG current change (%, negative = inhibition) at 1uM” value is on record?
The value was 11.5%.

With `COc1ccccc1-c1nc2cc(Cl)ccc2c(=O)n1O` as the molecule, how does the “hERG current change (%, negative = inhibition) at 1uM” value read?
The value was 18%.

With `COc1cccc(/C=C/C(=O)NCc2ccc(S(N)(=O)=O)cc2)c1` as the molecule, how does the “hERG current change (%, negative = inhibition) at 1uM” value read?
Its value is 4.85%.

Which “hERG current change (%, negative = inhibition) at 1uM” value does the source give for `O=C(Nc1ccc(N2CCCC2)cc1)c1ccccc1F` here?
The value was 15.8%.

With `COC(=O)c1c(C(=O)OC)c(-c2ccc(F)cc2)n2c1CSC2` as the molecule, how does the “hERG current change (%, negative = inhibition) at 1uM” value read?
Its value is 8.67%.

Which “hERG current change (%, negative = inhibition) at 1uM” value does the source give for `O=c1oc2ccc3ccccc3c2cc1-c1nnc(-c2cccs2)o1` here?
The value was 4.71%.

`CS(=O)(=O)O.O=C(O)c1ccc2c(c1)c1c3n2CCNC3CCC1` (centres unmarked) was tested. Which “hERG current change (%, negative = inhibition) at 1uM” value did it give?
Its value is 18.5%.

Which “hERG current change (%, negative = inhibition) at 1uM” value does the source give for `Cc1ccc(C(=O)NN2C(=O)C3C4C=CC([C@@H]3C2=O)C42CC2)cc1` (some centres unmarked) here?
The value was 14.2%.

How did the “hERG current change (%, negative = inhibition) at 1uM” value turn out when `COC(=O)Cn1c(=O)oc2ccc(C)cc21` was run?
Its value is 7.8%.

Which “hERG current change (%, negative = inhibition) at 1uM” value does the source give for `Cc1ccc(NC(=O)Cc2c(C(=O)O)n(C)c3ccccc23)cc1F` here?
Its value is 12.5%.

For `COc1ccc2c(c1)O[C@@H](c1cccc(C(F)(F)F)c1)[C@H](OC(=O)N[C@H]1CCCc3ccccc31)C2=O`, which “hERG current change (%, negative = inhibition) at 1uM” value is on record?
The value was 16.1%.

`CCOc1ccc(-n2cnc3sc4c(c3c2=O)CCCC4)cc1` was tested. Which “hERG current change (%, negative = inhibition) at 1uM” value did it give?
The value was 2.61%.

With `Cc1ccc(CN2CCN(C/C=C/c3ccc(F)cc3)CC2CCO)o1` (centres unmarked) as the molecule, how does the “hERG current change (%, negative = inhibition) at 1uM” value read?
Its value is -0.0683%.

Which “hERG current change (%, negative = inhibition) at 1uM” value does the source give for `CCN1CCC(NC(=O)Nc2cc(Cl)ccc2OC)CC1` here?
The value was 15.8%.

With `COc1ccc([C@H]2CC(=O)C=C(c3ccc(OC)c(F)c3)C2)cc1` as the molecule, how does the “hERG current change (%, negative = inhibition) at 1uM” value read?
The value was 8.31%.

For `CCN(CC)C(=O)C1CCCN(Cc2ccc3ccccc3c2)C1` (centres unmarked), which “hERG current change (%, negative = inhibition) at 1uM” value is on record?
The value was 11.2%.

How did the “hERG current change (%, negative = inhibition) at 1uM” value turn out when `COc1ccc2cc3c(N)nn(C(=O)Cc4c[nH]c5ccccc45)c3nc2c1` was run?
The value was 11.8%.

For `COC(=O)C1CN(S(=O)(=O)c2ccc(NC(C)=O)cc2)CCS1` (centres unmarked), which “hERG current change (%, negative = inhibition) at 1uM” value is on record?
Its value is 14.3%.

`O=C(O)C1CCN(c2ncccn2)CC1` was tested. Which “hERG current change (%, negative = inhibition) at 1uM” value did it give?
The value was 3%.

`CCCCOc1ccc(C(=O)NCC(=O)N2CCN(Cc3ccc4c(c3)OCO4)CC2)cc1` was tested. Which “hERG current change (%, negative = inhibition) at 1uM” value did it give?
The value was 7.32%.

Which “hERG current change (%, negative = inhibition) at 1uM” value does the source give for `O=C(/C=C/c1ccnc2ccccc12)c1cccs1` here?
Its value is 9.46%.

Which “hERG current change (%, negative = inhibition) at 1uM” value does the source give for `Cc1ccc(C(=O)NCCNC(=O)CN2CCCC2)cc1` here?
The value was 10.4%.

With `COc1ccc(C2=NCCc3cc(OC)c(OC)cc32)cc1` as the molecule, how does the “hERG current change (%, negative = inhibition) at 1uM” value read?
The value was -3.21%.

Which “hERG current change (%, negative = inhibition) at 1uM” value does the source give for `CCOc1nc(Nc2ccc(OC)c(Cl)c2)nc(N2CCN(c3ccc(OC)cc3)CC2)n1` here?
The value was 5.22%.

For `O=c1[nH][nH]c(-c2ccccc2)c1C=Nc1ccccc1Cl`, which “hERG current change (%, negative = inhibition) at 1uM” value is on record?
The value was 12.5%.

Which “hERG current change (%, negative = inhibition) at 1uM” value does the source give for `Cc1no[n+]([O-])c1COc1ccccc1/C=C1\NC(=S)NC1=O` here?
Its value is 3.8%.

With `Clc1ccc(CSc2nnc(NC3=NCCCCC3)s2)cc1` as the molecule, how does the “hERG current change (%, negative = inhibition) at 1uM” value read?
Its value is 5.49%.

With `CCC(=O)N(C1=C(NC(C)C)C(=O)c2ccccc2C1=O)C(C)C` as the molecule, how does the “hERG current change (%, negative = inhibition) at 1uM” value read?
The value was 3.16%.

For `O=C(O)c1ccccc1C(=O)NC1Cc2ccccc2C1`, which “hERG current change (%, negative = inhibition) at 1uM” value is on record?
Its value is 5.23%.

Which “hERG current change (%, negative = inhibition) at 1uM” value does the source give for `CC(C)(C)OC(=O)N1CCCN(C(=O)c2ccc(Cl)cc2)CC1` here?
Its value is 10.9%.

How did the “hERG current change (%, negative = inhibition) at 1uM” value turn out when `COc1ccc(CCNC(=O)CN(c2cc(C)cc(C)c2)S(=O)(=O)c2c(C)noc2C)cc1OC` was run?
Its value is 13.9%.

How did the “hERG current change (%, negative = inhibition) at 1uM” value turn out when `COc1cccc(N(CC(=O)NC2CCCCC2)C(=O)CCC(=O)Nc2nc(C)cs2)c1` was run?
Its value is 4.12%.

With `CC(=O)c1cccc(NC(=O)N2CCCC2C(=O)Nc2cccc(C)c2C)c1` (centres unmarked) as the molecule, how does the “hERG current change (%, negative = inhibition) at 1uM” value read?
Its value is 10.1%.

With `O=C1C=C(NCc2ccc3c(c2)OCO3)CC(c2ccccc2)C1` (centres unmarked) as the molecule, how does the “hERG current change (%, negative = inhibition) at 1uM” value read?
Its value is -81.9%.

`Nc1c2c(nc3ccn(Cc4ccccc4)c(=O)c13)CCC2` was tested. Which “hERG current change (%, negative = inhibition) at 1uM” value did it give?
The value was -59%.

`O=C(O)c1cc(NN=C2c3ccccc3-c3ccccc32)ccc1Cl` was tested. Which “hERG current change (%, negative = inhibition) at 1uM” value did it give?
Its value is 11.4%.

`O=C(Cc1nnc(NC(=O)c2ccccc2)s1)N/N=C/c1cccc(O)c1` was tested. Which “hERG current change (%, negative = inhibition) at 1uM” value did it give?
The value was 18.9%.

Which “hERG current change (%, negative = inhibition) at 1uM” value does the source give for `COC(=O)c1c(NC(=O)CC2SC(N)=NC2=O)sc2c1CCCC2` (centres unmarked) here?
Its value is 12.2%.

For `CCOC(=O)C1(Cc2ccccc2)CCN(Cc2cc(OC)c3c(c2)OCO3)CC1`, which “hERG current change (%, negative = inhibition) at 1uM” value is on record?
The value was 0.839%.
